These results are taken from PubChem BioAssay AID488969 (Vanderbilt High Throughput Screening Facility, 2010).

The structures appear in SMILES notation. The full ranking holds about 110,000 compounds; the median of “z-score” is about -0.1, and the highest 2% start at about 2. This is one part of the list. Calls of active or inactive are those of the source.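 How the source made its calls: active means z-score in the third read window above 3 or below -3; inactive means the rest.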

The target of this assay is Metabotropic glutamate receptor 8 (Rattus norvegicus) (UniProt P70579). The experiment in a line: mGluR8 Gi/Go-coupled signaling modulation – cell-based, rat, thallium flux, HTS, primary screen (AID 488969). Conditions: HEK293 rat mGluR8, GIRK (G protein-gated inwardly rectifying potassium channel) thallium flux, FluoZin2; at 10 µM; stronger effect = higher value; submaximal glutamate (EC20) added with thallium.
Sequence of UniProt P70579 (P70579 whole entry, looked up): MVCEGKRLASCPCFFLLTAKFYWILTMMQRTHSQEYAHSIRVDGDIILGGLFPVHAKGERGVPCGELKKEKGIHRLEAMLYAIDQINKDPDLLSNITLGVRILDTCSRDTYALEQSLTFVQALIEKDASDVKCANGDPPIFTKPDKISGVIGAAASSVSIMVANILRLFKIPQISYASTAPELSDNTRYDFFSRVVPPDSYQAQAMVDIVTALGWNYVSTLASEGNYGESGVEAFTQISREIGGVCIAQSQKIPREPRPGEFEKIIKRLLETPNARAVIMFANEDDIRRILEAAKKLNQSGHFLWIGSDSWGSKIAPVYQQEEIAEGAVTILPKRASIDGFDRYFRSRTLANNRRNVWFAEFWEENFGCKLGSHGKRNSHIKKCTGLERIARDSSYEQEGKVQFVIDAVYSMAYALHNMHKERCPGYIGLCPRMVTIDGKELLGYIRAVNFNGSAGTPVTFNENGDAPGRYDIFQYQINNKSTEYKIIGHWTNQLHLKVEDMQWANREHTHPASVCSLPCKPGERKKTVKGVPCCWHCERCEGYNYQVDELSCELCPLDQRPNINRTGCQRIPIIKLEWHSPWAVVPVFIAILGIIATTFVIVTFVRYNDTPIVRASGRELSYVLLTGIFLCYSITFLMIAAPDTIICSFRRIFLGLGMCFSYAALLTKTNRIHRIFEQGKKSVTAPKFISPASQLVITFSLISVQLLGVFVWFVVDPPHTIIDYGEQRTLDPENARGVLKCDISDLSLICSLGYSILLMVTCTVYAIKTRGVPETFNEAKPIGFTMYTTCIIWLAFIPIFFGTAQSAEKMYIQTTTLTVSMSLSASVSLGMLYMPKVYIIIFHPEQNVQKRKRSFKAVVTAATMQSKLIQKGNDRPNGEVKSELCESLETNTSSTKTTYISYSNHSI
Regarding `COc1ccc(N(CC(=O)Nc2cccc(C(=O)O)c2)S(=O)(=O)c2c(C)noc2C)cc1`, the z-score was -0.205.
To `CCOC(=O)CNC(=O)Nc1ccccc1C(=O)OC` belongs -0.365.
As for `CC1CCCCC1NC(=O)COC(=O)c1ccc(S(=O)(=O)NCc2ccco2)cc1` (stereo not given), the figure is -0.0725.
To `CCC(C)NC(=O)C1CCN(S(=O)(=O)c2cccs2)CC1` (stereo not given) belongs 0.377.
In turn, `CCOC1CC(C)(C)NC(=S)N1` (stereo not given) registered a z-score of -0.234.
On to `COc1ccccc1OCCC(=O)OCC(=O)NC(C)c1ccccc1` (stereo not given), for which the z-score was found to be 0.983.
In the case of `Cc1ccccc1-n1c(C)n[nH]c1=S`, the z-score stood at 0.295.
For the molecule `CC(=O)NS(=O)(=O)c1ccc(NC(=O)CCc2ccccc2)cc1`, the z-score came out at 0.918.
To `COc1cc(C)nc(N2CCC(C(=O)NC3CCCCC3)CC2)n1` belongs 0.34.
As for `CC(=O)c1ccc(NC(=S)N2CC(C)CC(C)C2)cc1` (stereo not given), the figure is -0.208; as for `COC(=O)C1=C(O)CSC1=Nc1cccc(C(F)(F)F)c1`, -0.199; as for `CC(C)C(CCNC(=O)CC(Cc1ccccc1)c1ccco1)c1ccco1` (stereo not given), -0.262.
As for `CCCCN(C(=O)NC(=O)Nc1ccccc1OC)S(C)(=O)=O`, the figure is -0.271; as for `CCSc1nc2ccccc2n1Cc1nc(N)nc(N(C)C)n1`, -0.509.
In the case of `O=C(Nc1ccccc1)Nc1nnc(Cc2ccc([N+](=O)[O-])cc2)s1`, the z-score was -0.142.
As to `CCC(=O)Nc1ccc(S(=O)(=O)NCc2ccco2)cc1`, the z-score is -1.8.
With `Cc1nc(SCC(=O)NC(C)c2ccccc2)c2oc3ccccc3c2n1` (stereo not given), the z-score was -0.958.
To `Cc1cc(NC(=O)Cc2cccs2)no1` belongs -0.123; to `O=C(NCc1ccc(F)cc1)c1cc2c(s1)CCCC2`, -0.144.
In turn, `O=S(=O)(NCC(c1cccnc1)N1CCN(c2ccc(F)cc2)CC1)c1ccccc1` (stereo not given) yielded a z-score of -0.412.
With `COC(=O)c1nnn(-c2nonc2N)c1CN1CCc2ccccc21`, the z-score is -0.678.
Take `CCn1c(SCC(N)=O)nnc1-c1ccc2[nH]c(C)c(C)c2c1`: the z-score is -0.675.
For the molecule `O=C(NCc1ccco1)c1cc(-c2cccs2)on1`, the z-score was -0.182.
As for `Cc1ccc(S(=O)(=O)N2CCN(C(=O)CN3CCOCC3)C2C(C)C)cc1` (stereo not given), the figure is -0.331; as for `Cc1nnc(SCC(=O)Nc2ccc(-c3nc4ccccc4s3)cc2)s1`, -0.0598.
To `COc1ccc(/C=C/C(=O)NC(=S)NNC(=O)Cc2cccs2)cc1OC` belongs -0.448.
To `CCOC(=O)N1CCN(CC(O)COCCC23CC4CC(CC(C4)C2)C3)CC1` (stereo not given) belongs 1.96; to `Cc1ccc(S(=O)(=O)c2c(N)n(Cc3ccco3)c3nc4ccccc4nc23)cc1`, -1.78; to `COc1ccc(C(=O)CSc2nnc(-c3ccco3)n2CC2CCCO2)cc1` (stereo not given), -0.159.
On to `Cn1ncc2c(=O)n(/N=C/c3ccccc3)cnc21`, for which the z-score is -0.0987.
`O=C(O)CCN1C(=O)CC2(CCCCC2)C1=O`: the z-score came to 0.371.
To `CCOc1cc(/C=N/NC(=O)CNc2cccc(C)c2)ccc1OC(=O)c1ccccc1` belongs active: 5.52.
To `O=C(O)C(NC(=O)c1ccccc1)=C(Cl)Cl` belongs 0.118; to `CCOc1ccc2c(c1)C(C)=CC(C)(C)N2C(=O)Nc1ccccc1`, -0.23; to `Cn1c(SCc2c(Cl)cccc2Cl)nc(C(F)(F)F)cc1=O`, 0.025.
To `COc1ccc(NC(=O)COC(=O)CNC(=O)c2cc(OC)c(OC)c(OC)c2)cc1` belongs -0.308.
In turn, `CC(=O)c1cccc(NC(=O)C(OC(=O)/C=C/c2ccc3c(c2)OCO3)c2ccccc2)c1` (stereo not given) displayed a z-score of -0.164.
As for `O=C(Nc1ccccc1C(=O)OCc1nnc(-c2ccccc2)o1)c1ccco1`, the figure is -0.0394.
To `CCOc1cc(/C=C/c2ccc3cccc([N+](=O)[O-])c3n2)cc(Cl)c1O` belongs 0.601.
Molecule `CCC(C)[C@H](NC(=O)NCc1ccccn1)C(=O)OC` (stereo not given in full) had a z-score of 0.224.
To `COc1ccc(CNC(=O)CSc2ncn[nH]2)cc1` belongs -0.172; to `Cc1nc2ccccc2c(=O)n1/N=C/c1ccccc1`, -0.0985.
Molecule `CC1CCN(C(=O)COC(=O)c2cc3ccccc3cc2O)CC1` registered a z-score of -0.0905.
Regarding `CCC(=O)Nc1cc(=O)[nH]c2ncnn12`, the z-score turned out to be 0.0854.
As for `Cc1cc(C)c2nc(-c3ccccn3)cc(C(=O)Nc3cc(C)on3)c2c1`, the figure is 0.126; as for `Cc1ccc2nc(C(=O)O)c(C(=O)O)nc2c1`, -0.0144; as for `CCOC(=O)C(Cc1ccc(NC(=O)/C(=C\c2ccccc2)NC(=O)c2ccccc2)cc1)N1C(=O)c2ccccc2C1=O` (stereo not given), -0.246.
To `COc1ccc(S(=O)(=O)N(CC(=O)NCc2ccco2)c2ccccc2)cc1OC` belongs 0.527; to `Cc1cccc(C)c1NC(=O)CN1C(=O)S/C(=C\c2cccn2C)C1=O`, -0.0785; to `CCCNC(=O)CSc1nnc(-c2ccco2)n1C`, -0.316.
To `O=C(N/N=C/c1cc([N+](=O)[O-])ccc1Cl)c1ccc2nc[nH]c2c1` belongs -0.208; to `CC(=O)c1cccc(N(CC(=O)N2CCCCC2)S(C)(=O)=O)c1`, 0.014.
The molecule `Cc1cccc2cc(C(c3nnnn3Cc3ccccc3)N3CCN(c4ccccc4)CC3)c(=O)[nH]c12` (stereo not given) returned a z-score of -0.277.
To `COCCCNC(=O)CC(NS(=O)(=O)c1ccc(Cl)cc1)c1ccc(OC)cc1` (stereo not given) belongs -0.0343.
The molecule `CCCCCCC(=O)NC(Nc1ccc(S(N)(=O)=O)cc1)C(Cl)(Cl)Cl` (stereo not given) showed a z-score of -0.259.
To `COCCNC(=O)C(C)OC(=O)c1nsc(Cl)c1Cl` (stereo not given) belongs -0.143; to `COC(=O)C1CCN(CC(=O)Nc2sc3c(c2C#N)CCC3)CC1`, -0.0794; to `CC(=O)N1CCN(C(=S)c2cccc([N+](=O)[O-])c2)CC1`, -0.106.
As to `CC1(C)C(=O)Nc2ccccc2N1C(=O)COC(=O)CCSc1ccccc1`, the z-score amounted to 0.0918.
`CCOc1ccc(/C=N/NC(=O)Cc2csc(Nc3cccc(C(F)(F)F)c3)n2)c(OCC)c1` yielded a z-score of -0.169.
`COc1ccc(OC)c(-c2cc(C(=O)Nc3cc(C)n(Cc4ccc(Cl)cc4)n3)no2)c1` yielded a z-score of -0.962.
As for `CC(Oc1ccc(F)cc1F)C(=O)/C=C/N(C)C` (stereo not given), the figure is -0.349.
To `Cc1cc(C)n(-c2nnc3n2N=C(c2c[nH]c4ccccc24)CS3)n1` belongs -2.14; to `Cc1cccc(C)c1-n1c(C)cc(/C=N/NC(=O)CSc2ncccn2)c1C`, -0.547; to `CC(C)COc1cccc(C(=O)NC(=S)NCc2cccnc2)c1`, 0.559.
As for `CCCOC(=O)C1[C@H]2C(=O)N(Cc3ccco3)C[C@]23C=C[C@H]1O3` (stereo not given in full), the z-score came to 0.0986.
`CC(C(=O)Nc1ccc2nccnc2c1)N1C(=O)C2C3C=CC(C3)C2C1=O` (stereo not given) registered a z-score of -0.162.
With `COc1cccc(C(=O)COC(=O)C(C)N2C(=O)C3C4C=CC(C4)C3C2=O)c1` (stereo not given), the z-score was -0.0918.
`COc1ccc(S(=O)(=O)N2CCC(C(=O)NCCC3=CCCCC3)CC2)cc1C`: the z-score was 0.18.
To `O=C(CSc1nc2ccc([N+](=O)[O-])cc2[nH]1)NC1CCCC1` belongs -0.462.
